Reference: PubChem BioAssay AID1963576 (National Center for Advancing Translational Sciences (NCATS), 2024)
In all, about 46,000 compounds went through this assay and about 60 (0.1%) were called active. Roughly 3% stayed inconclusive and do not appear here. Calls come from the whole dose curve; as a rule, active = well fitted inhibition curve with a large enough effect; inconclusive = small, poorly fitted or top-dose-only effect; inactive = no such curve, though single readings can be large or run the other way. Some of the results follow.

Experiment: Primary qHTS assay for Inhibitors of ovarian cancer metastasis using an organotypic tumor microenvironment (TME) model.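 For activity change, negative = inhibition: plate controls were DMSO wells for no effect and tomatine positive control wells for full effect.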 Note: nearly all actives have a fitted effect of over 65% in size.
Details: SKOV3ip1-GFP adhesion/invasion on 3D omental model, fluorescence; series mostly up to 45.8 µM; activity change, negative = inhibition: at the top concentration
In short: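 qHTS, 4-pt dose (0.36-46 umol/L); SKOV3ip1-GFP, 1,200 cells/well, no FBS; primary omental fibroblast/mesothelial co-culture 48 h pre-grown; 2 h RT + 16 h 37 C; PBS wash, 4% PFA; GFP count 488/509 nm.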

Activity change, negative = inhibition, inactive:
Cc1ccc2nc(NC(=O)CSc3nccn3-c3ccc(Cl)cc3)sc2c1 -3.78%
CC(C)(C)OC(=O)N1CCC(c2c(C(=O)N3CCN(c4ccccn4)CC3)cnn2-c2ccccc2)CC1 12.7%
COc1ccccc1CNc1cc(C)nc2nc(-c3ccc(C)cc3)nn12 -10.9%
COc1ccc(-c2nc(C)c(CCNC(=O)c3cccs3)s2)cc1OC 5.68%
COCCCN1C(=O)c2ccccc2CC1(C)C(=O)NC1CCCCC1 (stereo unspecified) 3.53%
COc1ccc(C2C(C(=O)Nc3ccc(Cl)cc3)=C(C)Nc3nc(SCc4cccc(C)c4)nn32)cc1OC (stereo unspecified) -17.8%
CCCn1c(=O)c2[nH]c(C34CC5CC3C[C@@H](C5)C4)nc2n(CCC)c1=O -4.48%
O=C(Nc1ccc(Cl)cc1F)c1cnc2sc(N3CCOCC3)nn2c1=O -1.06%
O=C(CSc1nnc(-c2ccccc2F)o1)Nc1cccc(C(F)(F)F)c1 1.91%
CCC1CCCCN1S(=O)(=O)c1ccc(C(=O)Nc2sc3c(c2C(N)=O)CCC3)cc1 (stereo unspecified) -9.92%
Cc1ccc(NC(=O)Cn2c(=O)oc3cc(S(=O)(=O)N4CCCCC4)ccc32)c(Cl)c1 -6.58%
Cc1cccc(Cn2c(SCc3ccc(C(=O)NCc4ccccc4F)cc3)nc3ccncc32)c1 -26%
c1ccc(-c2noc(-c3cccnc3NCc3ccco3)n2)cc1 0.955%
COc1ccccc1-c1noc(-c2ccc(NC3CCCCC3)c([N+](=O)[O-])c2)n1 -9.02%
Cc1c(-c2cccc(NC(=O)Nc3ccc(Cl)cc3)c2)nc2ncccn12 -6.35%
CC(C)(C)C1CCc2c(sc3nc(-c4cc5ccccc5oc4=O)[nH]c(=O)c23)C1 (stereo unspecified) 13.7%
CC1CCCCN1C(=O)Cn1ncc2c3ccccc3n(Cc3ccccc3F)c2c1=O (stereo unspecified) -17.9%
COc1ccc(CN(C(=O)c2cc3ccccc3oc2=O)C2CCS(=O)(=O)C2)cc1OC (stereo unspecified) 2.18%
CCN(CC)CCCNC(=O)CCCn1ncn2c(cc3occc32)c1=O 4.46%
COc1cc2c(cc1OC)CN(CCc1ccc(NC(=O)c3cccc4c(=O)c5cccc(OC)c5[nH]c34)cc1)CC2 0.448%
O=c1c(=O)n(Cc2ccc(Cl)cc2)ccn1Cc1ccc(F)cc1 -23.9%
COc1cccc(NC(=O)CCc2nc3c(C)nn(-c4ccc(C)cc4)c3n(C)c2=O)c1 5.68%
CCCCN(CCCNC(=O)CN1N=C(c2ccc(C)cc2)CCC1=O)c1ccccc1 5.88%
COCCCNC(=O)c1cnc2sc(N3CCCCCC3)nn2c1=O 12.2%

outcome, inactive:
COCCNC(=O)Cn1c(=O)n(CCCCCC(=O)NCc2ccccc2Cl)c(=O)c2sccc21
Cc1ccc2c(c1)-c1c(cnn1CC(=O)N1CCN(c3ccccc3F)CC1)CO2
